# Paper PMC4336329 (PLoS ONE, 2015)
# Screen size: about 310,000 compounds; about 2,200 (0.71%) showed an effect of 50% or more. Effects have a minus sign here. Some of the results follow.
# Molecular target: human ether-à-go-go-related gene (hERG) potassium channel (human, UniProt Q12809)
# Assay: primary screen, population patch clamp on CHO cells stably expressing hERG
# Sequence of human ether-à-go-go-related gene (hERG) potassium channel (Q12809 whole entry, looked up): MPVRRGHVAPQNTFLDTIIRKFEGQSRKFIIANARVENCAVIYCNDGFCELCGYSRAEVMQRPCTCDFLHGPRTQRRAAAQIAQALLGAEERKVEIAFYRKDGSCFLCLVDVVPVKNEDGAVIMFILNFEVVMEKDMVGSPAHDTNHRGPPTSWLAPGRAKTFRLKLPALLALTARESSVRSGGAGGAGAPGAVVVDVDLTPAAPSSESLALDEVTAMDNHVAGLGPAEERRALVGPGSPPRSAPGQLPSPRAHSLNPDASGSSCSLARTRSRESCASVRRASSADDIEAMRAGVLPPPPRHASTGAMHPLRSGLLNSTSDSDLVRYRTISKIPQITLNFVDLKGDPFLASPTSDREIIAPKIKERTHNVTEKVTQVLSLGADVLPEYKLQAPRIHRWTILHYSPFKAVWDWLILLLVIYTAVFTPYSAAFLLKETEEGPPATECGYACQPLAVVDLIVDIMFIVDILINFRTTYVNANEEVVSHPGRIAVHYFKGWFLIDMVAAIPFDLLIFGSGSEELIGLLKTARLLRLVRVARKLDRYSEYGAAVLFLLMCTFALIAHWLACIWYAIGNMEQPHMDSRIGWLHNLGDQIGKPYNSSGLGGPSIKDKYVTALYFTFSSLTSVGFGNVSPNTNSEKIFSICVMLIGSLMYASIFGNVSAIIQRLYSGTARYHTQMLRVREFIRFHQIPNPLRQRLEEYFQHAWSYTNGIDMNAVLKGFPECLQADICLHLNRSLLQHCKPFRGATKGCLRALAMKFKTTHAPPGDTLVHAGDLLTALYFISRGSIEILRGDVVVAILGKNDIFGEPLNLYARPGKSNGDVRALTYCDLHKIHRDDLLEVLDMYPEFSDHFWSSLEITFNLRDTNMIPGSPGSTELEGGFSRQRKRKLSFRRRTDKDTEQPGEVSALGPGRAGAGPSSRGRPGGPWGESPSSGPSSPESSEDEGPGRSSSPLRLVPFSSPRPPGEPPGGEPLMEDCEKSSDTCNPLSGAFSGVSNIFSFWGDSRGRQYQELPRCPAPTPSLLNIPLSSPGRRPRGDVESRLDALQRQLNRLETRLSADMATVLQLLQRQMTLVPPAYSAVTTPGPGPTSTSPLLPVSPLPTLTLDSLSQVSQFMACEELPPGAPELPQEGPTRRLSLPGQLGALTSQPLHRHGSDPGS
row,SMILES,"hERG current change (%, negative = inhibition) at 1uM"
1,CC(NC(=O)c1ccc(-c2cc(C(F)(F)F)ccc2Cl)o1)c1ccccc1 (stereo not shown),10.3%
2,CCOC(=O)/C(=N\Nc1ccccc1)P(=O)(c1ccccc1)c1ccccc1,1.99%
3,Cl.NCCNCCNCCN,15.4%
4,O=C(C1CCN(S(=O)(=O)c2ccc(Cl)cc2)CC1)N1CCOCC1,1.99%
5,CN(C)S(=O)(=O)c1cc(NC(=O)C2=COCCO2)ccc1Cl,11.7%
6,Cc1ccc(S(=O)(=O)N2Cc3ccccc3CC2C(=O)Nn2cnnc2)cc1 (stereo not shown),-6.44%
7,O=C(Nc1nc(-c2ccccc2)cs1)c1ccc(Br)o1,12.3%
8,CCCCc1nnc(NC(=O)CSc2nc(O)c(Cc3ccccc3)c(=O)[nH]2)s1,13.2%
9,COc1ccc(Cl)cc1NC(=O)CN1CCC(n2nnc3cc(F)ccc32)CC1,12.4%
10,CCc1ccc(/C=C2/Sc3ccccc3N(CC(=O)NCCCOC)C2=O)cc1,11.3%
11,CCOc1cccc2sc(N(CCN(C)C)C(=O)CCS(=O)(=O)c3ccccc3)nc12.Cl,7.1%
12,CN(c1ncc(C(F)(F)F)cc1Cl)n1cc(C(N)=O)c2ccccc2c1=O,3.75%
13,CC1S/C(=N\N=C\c2cccc([N+](=O)[O-])c2)N(C(C)(C)C)C1=O (stereo not shown),12.4%
14,CN1C/C(=C/c2cccnc2)C(=O)/C(=C/c2cccnc2)C1,-25.5%
15,CCN(CC)S(=O)(=O)c1ccc2[nH]cc(C(=O)NCCN3CCCCCC3)c(=O)c2c1,-8.03%
16,CC(=O)N1c2ccccc2-c2nc3ccccc3n2C1C (stereo not shown),11.1%
17,Cc1cccc(N2C(=O)CC(N3CCN(c4ccc(Cl)cc4)CC3)C2=O)c1 (stereo not shown),12.5%
18,COc1ccc(S(=O)(=O)NCCCCC(=O)O)cc1C(=O)O,2.43%
19,COC(=O)c1sc(NC(=S)NC(=O)c2ccc(C)cc2)nc1C,10.9%
20,CCC(CC)c1nnc(NC(=O)c2c(C)nn(Cc3ccccc3Cl)c2C)s1,9.35%
21,Cc1ccc(OCCC(=O)OCC(=O)NC(=O)NCc2ccccc2)cc1,8.32%
22,Br.COCCCN1Cc2ccccc2C1=N,-0.473%

row,SMILES,"hERG current change (%, negative = inhibition) at 1uM"
1,COc1ccccc1OCC(=O)N(Cc1nc(-c2ccccc2)no1)C(C)C,7.9%
2,O=C(Cc1cccc(NC(=O)C2CCN(C(=O)C3CCCC3)CC2)c1)Nc1cccc(C(=O)N2CCCC2)c1,14.7%
3,COc1ccc(CCNC(=O)c2cc(-c3ccccn3)nc3c(Cl)cccc23)cc1OC,-0.734%
4,COc1ccc(/C(C)=N/OCC(=O)Nc2nc3ccccc3s2)cc1,5.56%
5,COc1ccc(C=O)cc1CSc1nnc(COc2cccc3cccnc23)o1,6.22%
6,COc1ccccc1CN1CC(C(=O)N(CCO)Cc2cccs2)CCC1=O (stereo not shown),18.9%
7,CCCN(C(=O)CCCSc1nc2ccccc2[nH]1)c1c(N)n(Cc2ccccc2)c(=O)[nH]c1=O,8.5%
8,Cc1cccc(C(=O)Oc2cccc3c(O)cccc23)c1,16.5%
9,CCc1nnc(SCc2cn3c(C)cc(C)nc3n2)n1N,16.5%
10,O=C(Nc1ccc(F)cc1)C1C2CCC3C(CCC21)C3(Cl)Cl (stereo not shown),14.5%
11,CC1CCN(C(=O)c2ccc(N3C(=O)c4ccccc4C3=O)cc2)CC1,15.2%
12,Cc1ccc2cccc(S(=O)(=O)n3nc(C)cc3C)c2n1,7.96%
13,Cc1ccc(NC(=O)COc2ccccc2C#N)cc1S(=O)(=O)N1CCCCCC1,-11.9%
14,Cc1cc(C)cc(NC(=O)Nc2cccnc2)c1,10.4%
15,O=C(COC(=O)/C=C/c1ccc(Br)o1)Nc1ccccc1F,8.17%
16,COC(=O)CCCCCN1C(=O)NC(c2ccc(-c3ccccc3)cc2)C(C(=O)OCc2ccccc2)=C1C (stereo not shown),4.36%
17,O=C1C2C3C=CC(C3)C2C(=O)N1c1ccc2ccccc2n1 (stereo not shown),6.71%
18,CCOc1ccc(CN2CCN(Cc3cccn3-c3cccnc3)CC2CCO)cc1 (stereo not shown),-86.3%
19,O=C(N/N=C/c1ccc[nH]1)c1cc2ccccc2cc1O,15.4%
20,COC(=O)c1cccc(NC(=O)/C=C/c2cccc([N+](=O)[O-])c2)c1,5.91%
21,O=C(c1cnc(Cl)c(Cl)c1)N1CCN(S(=O)(=O)c2ccc(F)cc2)CC1,8.2%
